Assay results as given in PubChem BioAssay AID588855 (National Center for Advancing Translational Sciences (NCATS), 2011).
Values joined by “and” are separate entries in the source; they are usually repeats but may differ in a detail not shown here. Equal values may be shown once. Screen size: about 410,000 compounds; about 5,000 (1.2%) were called active. Inconclusive results, whose numbers are uncertain, are shown with a selection of clear calls. Calls come from the whole dose curve; as a rule, active = well fitted inhibition curve with a large enough effect; inconclusive = small, poorly fitted or top-dose-only effect; inactive = no such curve, though single readings can be large or run the other way. A potency beside an inconclusive call is a rough fit, not a confirmed value.

Assay: qHTS for Inhibitors of TGF-b; note: nearly all actives have a fitted effect of over 65% in size
Settings: HepG2 CAGA-GFP TGF-b/SMAD3 reporter, GFP fluorescence, 18 h, TGF-beta stimulated, 500 pg/mL final; series mostly up to 46.1 µM
Method in brief: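 Read-out: total well GFP (ex488/em500-530) summed from mean per-cell fluorescence. Cells: HEPG2 CAGA-GFP, 1% FBS DMEM, 18 h at 37 degrees C with 500 pg/mL final TGF-beta. Unstimulated wells served as the full-inhibition control; stimulated DMSO wells = 0%.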
Potency is the fitted concentration of half-maximal effect; tags give direction and shape of the fitted curve.

Row | SMILES | Potency
1 | C[C@@H]1CN([C@@H](C)CO)C(=O)CCCn2cc(nn2)CO[C@H]1CN(C)S(=O)(=O)c1ccc2c(c1)OCCCO2 | inactive
2 | CCCOc1ccc(Oc2nc(NC)nc(N3CCOCC3)n2)nn1 | inactive
3 | COc1ccc(N2CCN(C(=O)CN(CCc3ccccc3)S(C)(=O)=O)CC2)cc1 | inactive
4 | Cc1ccc2c(c1)N(CC(=O)N1CCCCC1)C(=O)C(C)O2 (stereo not given) | inactive
5 | O=S(Cc1ccccc1)CC(O)(c1ccc(Cl)cc1)c1ccc(Cl)cc1 (stereo not given) | inconclusive: 35.5 µM [inhibitor, single point]
6 | COc1ccccc1CCNC(=O)Cn1ccc2cc(S(=O)(=O)N3CCC(C)CC3)ccc21 | inactive
7 | OC(Cc1ccccc1Br)c1ncc(-c2ccc(Cl)cc2)[nH]1 (stereo not given) | inconclusive: 31.6 µM [inhibitor, single point]
8 | CCn1c2ccccc2c2cc(CN3CCN(Cc4cccc(Cl)c4)CC3)ccc21 | inconclusive: 8.91 µM [inhibitor, partial curve]
9 | COc1ccc(-c2noc(CCC(=O)Nc3ccc(C)c(C)c3)n2)cc1 | inactive
10 | COc1ccc(N=Cc2ccc(N(CCC#N)CCC#N)cc2)cc1 | inconclusive: 35.5 µM [inhibitor, single point]
11 | COc1ccccc1CCn1cnc2c3cc(C)ccc3n(C)c2c1=O | inactive
12 | CC(C)c1ccc(S(=O)(=O)N2CCN(C(=O)C3CCN(C(=O)c4ccc(F)cc4)CC3)CC2)cc1 | inconclusive: 35.5 µM [inhibitor, single point]
13 | COc1cc(OC)c(NC(=O)Nc2ccc3c(c2)N(C)C(=O)c2ccccc2S3)cc1Cl | inconclusive: 0.794 µM [inhibitor, full curve]
14 | Cc1cc(C)c(C(=O)CSc2n[nH]c(-c3ccncc3)n2)c(C)c1 | inconclusive: 0.316 µM [inhibitor, partial curve, poor fit]
15 | CC1(C)c2[nH]c3ccccc3c2C[C@@H]2C(=O)N(Cc3ccc(F)cc3)C(=O)N21 | inconclusive: 25.1 µM [inhibitor, single point]
16 | Cn1nc(-c2cccnc2)nc2c(=O)n(C)c(=O)nc1-2 | active: 2.24 µM
17 | CN(C)c1ccc(NS(=O)(=O)c2ccc(Cl)cc2)cc1 | inconclusive: 35.5 µM [inhibitor, single point]
18 | Cn1c(=O)c2c(-c3ccccc3)n(-c3cccc(Br)c3)cc2n(C)c1=O | inconclusive: 22.4 µM [inhibitor, partial curve, poor fit]
19 | Cc1cccc2c1Sc1ccccc1CC2=O | inconclusive: 12.6 µM [inhibitor, partial curve]
20 | Cn1ncc2cc(NC(=S)NC(=O)c3ccccc3)ccc21 | inactive
21 | CC1N(O)C(c2ccc(Cl)cc2Cl)N(O)C1(C)C (stereo not given) | inconclusive: 5.62 µM [inhibitor, single point]
22 | CC(C)c1ccc(NC(=O)CCNS(=O)(=O)c2cc(Br)cnc2N)cc1 | inactive
23 | COc1ccc(C(=O)N/C(=C\c2cn(S(=O)(=O)N(C)C)c3ccccc23)C(=O)NCCN2CCOCC2)cc1OC | inactive

Row | SMILES | Potency
24 | COC(=O)c1c(-c2ccc(Cl)cc2)noc1N1CCN(c2ccc(C(C)=O)cc2)CC1 | inactive
25 | CCCNC(=O)CCc1c(C)nc2nc(CNC(=O)c3ccccc3)nn2c1C | inactive
26 | O=C1CCc2cc(S(=O)(=O)NC(Cc3ccccc3)C(=O)NCCC3=CCCCC3)ccc2N1 (stereo not given) | inconclusive: 17.8 µM [inhibitor, single point]
27 | COc1cc(CN2CCN(Cc3ccccc3C(F)(F)F)CC2)cc(OC)c1OC | inactive
28 | O=[N+]([O-])c1ccc(Cl)c(S(=O)(=O)/N=C(/Nc2cccnc2)c2ccccc2)c1 | inconclusive: 12.6 µM [inhibitor, partial curve]
29 | CC1CCN(CCCCOc2ccccc2Br)CC1 | inactive
30 | COc1ccc(N2CC(C(=O)OCC(=O)Nc3cccc(C)c3C)CC2=O)cc1 (stereo not given) | inconclusive: 2.82 µM [inhibitor, single point]
31 | CCOc1c(OC(C)=O)ccc(/C=C/c2ccc3cccc(OC)c3n2)c1[N+](=O)[O-] | inactive
32 | CCOC(=O)C1=C(CC)Nc2ccccc2N=C1NC(=O)Nc1ccc(Cl)c(Cl)c1 | active: 7.08 µM
33 | O=C(c1ccc(-n2cncn2)c([N+](=O)[O-])c1)N1CCN(S(=O)(=O)c2ccc(Br)cc2)CC1 | inconclusive: 28.2 µM [inhibitor, single point]
34 | CN(C)CCCN(C(=O)c1ccc(S(=O)(=O)N2CCCC2)cc1)c1nc2ccc(Br)cc2s1 | inconclusive: 31.6 µM [inhibitor, single point]
35 | CCCC/C(C)=N/NC(=O)CN(c1ccc(Br)cc1)S(=O)(=O)c1ccccc1 | inactive
36 | O=C(O)CCSc1nnc(-c2ccncc2)n1-c1ccccc1 | inactive
37 | COc1ccc(Cn2ccc3nc(C)c(C(=O)Nc4cc(OC)c(OC)c(OC)c4)cc3c2=O)cc1 | inactive
38 | O=c1oc2cc(Oc3c([N+](=O)[O-])cc(C(F)(F)F)cc3[N+](=O)[O-])ccc2c2c1CCCC2 | inconclusive: 11.2 µM [inhibitor, partial curve, poor fit]
39 | O=S1(=O)CCO[C@H]2Cc3ccccc3[C@H]2N1Cc1cccc(C(F)(F)F)c1 | inconclusive: 35.5 µM [inhibitor, single point] and inconclusive: 7.08 µM [inhibitor, full curve, poor fit]
40 | CC[C@@]1(O)C(=O)OCc2c1cc1n(c2=O)Cc2cc3c(CN(C)C)c(O)ccc3nc2-1 | inconclusive: 11.2 µM [inhibitor, partial curve]
41 | CC(CN1CCN(C/C=C/c2ccccc2)CC1)c1ccccc1 (stereo not given) | inactive
42 | c1cnc2ccc(C(c3nnnn3C3CCCC3)N3CCN4CCCC4C3)cc2c1 (stereo not given) | inactive
43 | CC1(C)CC(=O)C2=C(C1)NC(Nc1nc3ccccc3o1)=NC2c1cccnc1 (stereo not given) | inactive
44 | Cc1c(C(=O)NC2CCN(Cc3ccccc3)C2)oc2ccc(Br)cc12 (stereo not given) | inconclusive: 35.5 µM [inhibitor, single point]
45 | O=[N+]([O-])c1ccc(NCCCNS(=O)(=O)c2ccccc2)c(Cl)c1 | inactive
